Common to all, as to test: Primary Screen for Target Class Profiling of Small Molecule Inhibitors of Methyltransferases
Assay [1] deals with Glycine N-methyltransferase (Homo sapiens) (UniProt Q14749). Particulars: purified enzyme, MTase-Glo SAH luminescence; measured here: GNMT inhibition; at 40 µM; stronger effect = lower value. The gist of the method:
(§1)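 Each enzyme was assayed with SAM and its substrate. SAH formation detected by MTase-Glo luminescence; single-point 40 uM screen[…].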

In assay [2] the target is Guanidinoacetate N-methyltransferase (Homo sapiens) (UniProt Q14353). Particulars: purified enzyme, MTase-Glo SAH luminescence; measured here: GAMT inhibition; at 40 µM; stronger effect = lower value. Summed up: as §1
The target in assay [3] is Histamine N-methyltransferase (Homo sapiens) (UniProt P50135). Particulars: purified enzyme, MTase-Glo SAH luminescence; measured here: HNMT inhibition; at 40 µM; stronger effect = lower value. Summed up: as §1
The target in assay [4] is Nicotinamide N-methyltransferase (Homo sapiens) (UniProt P40261). The note with it: purified enzyme, MTase-Glo SAH luminescence; measured here: NNMT inhibition; at 40 µM; stronger effect = lower value. Summed up:
as §1

The target of assay [5] is Phenylethanolamine N-methyltransferase (Homo sapiens) (UniProt P11086). The note with it: purified enzyme, MTase-Glo SAH luminescence; measured here: PNMT inhibition; at 40 µM; stronger effect = lower value. Summed up: as §1

Drawing on PubChem BioAssay AID1745853 (National Center for Advancing Translational Sciences (NCATS), 2022), this text covers activity change, negative = inhibition for 28 compounds.

This is one part of the list. Further columns of the screen follow, without active or inactive calls.
% is scaled to controls: 0 for no effect and ±100 for the full control effect.

For the compound `Cc1ccc(CNC(=O)C2(C)Cc3ccccc3C(=O)N2Cc2ccc(C(F)(F)F)cc2)cc1` (configuration not stated), the activity change, negative = inhibition in assay [1] stood at 15.7%; in assay [2] it was 3.24%; in assay [3], 13.2%; in assay [4], 6.19%; in assay [5], 9.82%.
The corresponding values for `CCOc1ccccc1NC(=O)N1Cc2c(sc3c2CCCC3)-n2cccc2C1c1ccc(F)cc1` (configuration not stated) are 2.36%, 2.25%, 7.44%, -0.243% and 6.75%.
The corresponding values for `Clc1ccc(N2CCN(Cc3cc4ccccn4n3)CC2)cc1` are -3.3%, 10.1%, 9.26%, -8.63% and 5.18%.
Consider `O=C(O)C1=CCCN(CCON=C(c2ccccc2)c2ccccc2)C1`, for which the activity change, negative = inhibition in assay [1] is -11.8%; in assay [2], 2.11%; in assay [3], -2.87%; in assay [4] it was -14.1%; in assay [5], 2.98%.
The corresponding values for `O=C1N(C2CCN(S(=O)(=O)c3cnc[nH]3)CC2)C(c2ccccc2)C12CCCC2` (configuration not stated) are -24%, -11.3%, -5.31%, -21.9% and -5.84%.
The corresponding values for `COc1cccc(NC(=O)C2(C)CCc3cnc(NCc4ccccc4)nc32)c1` (configuration not stated) are -21.9%, -14.3%, -8.44%, -26.7% and -15.8%.
The corresponding values for `CN1C(=O)c2cc(C(=O)NCCN3CCCCC3)nn2CC1(C)C(=O)NCc1ccccc1` (configuration not stated) are -1.1%, 3.94%, -1.28%, 3.81% and 2.85%.
`O=C(N[C@H](c1ccccn1)C1CC(O)C1)c1cc(=O)n(-c2ccccc2)[nH]1` (some centres not stated): the activity change, negative = inhibition in assay [1] was -4.58%; in assay [2] it was -4.53%; in assay [3], -0.615%; in assay [4], -2.99%; in assay [5], 9.1%.
As to `COc1cc(OC)c(C(=O)/C=C/c2ccccc2)c2c1C=CC(C)(C)O2`, the results for the activity change, negative = inhibition in assay [2], in assay [4] and in assay [5] were -28.4%, -26% and -8.98%, respectively.
With `CCc1cc2c(cc3n2CC(C)(C(=O)NC2CCCCCC2)N(Cc2cccs2)C3=O)s1` (configuration not stated), the activity change, negative = inhibition in assay [1] was 1.92%; in assay [2] it was 0%; in assay [3], 4.34%; in assay [4], -10.4%; in assay [5], -0.375%.
The corresponding values for `O=C(O[C@H]1[C@@H]2C[C@@H]3OC[C@](O)([C@@H]1Cl)[C@H]2C(O[C@@H]1O[C@H](CO)[C@@H](O)[C@H](O)[C@H]1O)O3)c1ccc(O)c(O)c1` (some centres not stated) are 2.03%, 3.96%, 9.63%, -6.44% and 0.192%.
The corresponding values for `Fc1ccc(CN2CCC(Nc3ccc(C(F)(F)F)nn3)CC2)cc1F` are -0.491%, -6.35%, -3.73%, -19.7% and -8.28%.
The corresponding values for `CC1CCN(S(=O)(=O)c2nn(C)cc2C(=O)NCCc2cccs2)CC1` are 13.8%, 3.26%, 12%, 9.74% and 10.6%.
Consider `Cc1cc(F)ccc1-c1[nH]nc2ncc(-c3ccnn3C)nc12`, for which the activity change, negative = inhibition was -21.4% in assay [1]; -11.4% in assay [2]; -20.9% in assay [3]; -5.38% in assay [4]; -0.394% in assay [5].
Turning to `c1ccc(CN(CC2=NCCN2)c2ccccc2)cc1`, the activity change, negative = inhibition in assay [1] is 4.83%; in assay [2] it was 8.96%; in assay [3], 5.23%; in assay [4], -6.11%; in assay [5], 7.51%.
The corresponding values for `CCN(c1nc(N)c(C(=O)N=C(N)N)nc1Cl)C(C)C` are -0.063%, 6.27%, -12.5%, -7.77% and 2.22%.
As for `CN(C)c1ccc(-c2nnc3n(Cc4ccccc4)c(=O)c4ccccc4n23)cc1`, the activity change, negative = inhibition is -13.1% in assay [1]; 2.57% in assay [2]; 3.98% in assay [3]; -2.4% in assay [4]; -1.32% in assay [5].
On to `CC1(C(=O)NC2CCCCCCC2)Cn2c(ccc2-c2ccco2)C(=O)N1CC1CCCO1` (configuration not stated), for which the activity change, negative = inhibition in assay [1] was -6.14%; in assay [2], 0.944%; in assay [3] it was -2.47%; in assay [4] it was -17.8%; in assay [5] it was -7.4%.
The corresponding values for `Cc1cnc2c(C(=O)N3CCCn4nc(C(C)O)cc4C3)cnn2c1` (configuration not stated) are -2.79%, -4.67%, 0.561%, -2.92% and 0.789%.
The corresponding values for `O=C(NCc1ccc2c(c1)OCO2)c1sc(=S)n2c1[nH]c(=O)c1ccc(Cl)cc12` are -52.3%, -7.21%, -10.1%, -50.9% and -70.5%.
On to `CC1(C(=O)NCc2ccccc2)Cn2nc(-c3ccccc3)cc2C(=O)N1Cc1cccc(Br)c1` (configuration not stated), for which the activity change, negative = inhibition was -0.829% in assay [1]; 1.96% in assay [2]; -2.78% in assay [3]; -0.504% in assay [4]; -4.7% in assay [5].
The corresponding values for `CCOCCCN1C(=O)c2cc(-c3ccc(OC)cc3)nn2CC1(C)C(=O)NC1CCCCC1` (configuration not stated) are -5.31%, 0.752%, -1.42%, -1.87% and -2.69%.
For `CCCn1c(=O)c2ccc(C(=O)NC(C)CC)cc2n2c(=O)n(CC(=O)Nc3cccc(F)c3)nc12` (configuration not stated), the activity change, negative = inhibition in assay [1] is 4.23%; in assay [2], 4.5%; in assay [3], 10.1%; in assay [4] it was -2.01%; in assay [5] it was 4.43%.
The corresponding values for `CCC(C)NC(=O)c1ccc2c(=O)n(C(C)C)c3nn(CC(=O)NC(C)(C)C)c(=O)n3c2c1` (configuration not stated) are 0.084%, 2.89%, -1.25%, -14.7% and -2.57%.
With `CN(C)Cc1ccc(S(=O)(=O)n2ccc(/C=C/C(=O)NO)c2)cc1`, the activity change, negative = inhibition in assay [1] was -3.01%; in assay [3], 5.09%; in assay [4], -0.13%; in assay [5], 20%.
As for `CN(c1ccccc1)c1ccc2ncn(C3CC3)c(=O)c2n1`, the activity change, negative = inhibition was -14.8% in assay [1]; -11.9% in assay [2]; -17.7% in assay [3]; -23.4% in assay [4]; -20.8% in assay [5].
The corresponding values for `COc1c2c(c(C)c3c1C(=O)OC3)OC1(C)CC(O)C34OC(OC)(OC3(C)C)C(O)CC4(C)C1C2` (configuration not stated) are 0%, 4.49%, 4.94%, -25.2% and 2.21%.
The corresponding values for `CC(C)Cn1c(=O)c2cc(F)ccc2n2c(SCC(=O)NCc3ccccc3)nnc12` are 5.08%, 2.44%, 11.5%, -3.22% and 6.13%.
